The other results are listed elsewhere or left out.

Sequences and labels used below:
T1: UNK ZnF1-3 (human, UniProt Q9C0B0 31-174)
T1 sequence: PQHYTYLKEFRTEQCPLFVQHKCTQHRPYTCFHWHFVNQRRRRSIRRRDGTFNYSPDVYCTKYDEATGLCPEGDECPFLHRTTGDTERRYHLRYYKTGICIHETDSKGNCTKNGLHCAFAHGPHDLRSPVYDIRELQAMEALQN

B1: chr1:35656432:35656433:-_ENSG00000116560_ENST00000357214|perfect_dup|motif|central (ssRNA)
RNA: GGGAGUUCUACAGUCCGACGAUCAGAUCUUCCACGAUCAUCCACUAUUACAACAGCCCUUUCAAUAGGACCAAAUUGGCGGAAGGCUUCUUCCAACAGUUCAUUGGAAACAUAAGGUGAAAGAUUACGAACAGAAAGGGCAGCCAACAGAGGAUUGAGCAUCA
B2: chr5:67718940:67718941:+_ENSMUSG00000029221_ENSMUST00000113676|mus_mus|motif|central (ssRNA)
RNA: GGGAGUUCUACAGUCCGACGAUCAGUAAAGGACUCGGUGUCAUCGUGGGGACUUCGCCGCCUGAUUUUUCGAAGUUGUUCGGAAUCACUGGACUUAAGGCAGAACUCGUUUAUUGCUCUCACUCCAGUGAUGAAAUUAUUCUUCAACAGAGGAUUGAGCAUCA
B3: chr14:88400820:88400821:-_ENSG00000054983_ENST00000261304|hu_mus|FALSE|FALSE (ssRNA)
RNA: GGGAGUUCUACAGUCCGACGAUCGAGCUACCUUGGUAUUAGUGCGAAGGCUGCAAGGGCAGAACCCGCCCAAGCACCCCUGAAGGAUGGGACUGAACAACCGUGGGCCUUGAGAGCUACCACAGAGAGUGUCAAAGACUACCUCAACAGAGGAUUGAGCAUCA
B4: 151558971_151561332_1860_3pUTR_ENSMUSG00000034021_ENSMUST00000016569|mouse|control|control (ssRNA)
RNA: GGGAGUUCUACAGUCCGACGAUCCUGUUUCCGUAUUUUCUCAUCAUCUUCCAACACUUGUGUGAACUUCUUCAUGAAGUCUUGGGCCUUACCAGGAUCUGGCAAAUUUCUUGUGAUAACCAUCACUUUAGAAAAUAUGGCCUUCAACAGAGGAUUGAGCAUCA
B5: chr1:60038506:60038507:+_ENSMUSG00000041040_ENSMUST00000036540|mus_mus|FALSE|FALSE (ssRNA)
RNA: GGGAGUUCUACAGUCCGACGAUCAGCUUCCUCAAUGGGUUCUGGUGGUGCAUGGAGGGAGGCGGAUGGCAGGACUGUACUGGUUCCUCGAGAUACCCGCUCUUGCUCUGUGUUUGUAGACAGGGAGGCCAUAGAGAUGGGCUGCAACAGAGGAUUGAGCAUCA
B6: chr19:30213842:30213843:-_ENSMUSG00000024827_ENSMUST00000025778|mus_mus|FALSE|FALSE (ssRNA)
RNA: GGGAGUUCUACAGUCCGACGAUCAAUGUGCUUCAGCCCCUGGGAUCCAUGGUAAAUGGCGAACAUGGCAGCCAUGUUGGCUAAAAGGGCCUGAGCCGUGCAGAUGUUGCUGGUGGCUUUGUCUCUCCGGAUGUGUUGUUCUCUCAACAGAGGAUUGAGCAUCA
B7: chr17:24832259:24832260:-_ENSMUSG00000040888_ENSMUST00000046839|mus_mus|FALSE|FALSE (ssRNA)
RNA: GGGAGUUCUACAGUCCGACGAUCCCUUAUGUCUUCCGCACAUUCCUCGCAGGGGUAAAACUUGGAAAAUAUAUGUAUGAACUGGGCCAUAUCCUGUUGUUGUUCUGGCGUGGGCCUGUCCGGGUAAUAGGCGGCCAGCGUAUGCAACAGAGGAUUGAGCAUCA
B8: chr10:44834900:44834901:+_ENSMUSG00000019849_ENSMUST00000099858|mus_mus|FALSE|FALSE (ssRNA)
RNA: GGGAGUUCUACAGUCCGACGAUCGAAUGUGAACACUGUGCCCUCGUUGGUUACGUAGUCGUAUUCUCCUUCAAAGUUGUCUAUCAGUUUUACCCACUUCAGGAUUCCGGUGAUACCAUUGGGUUCUUGCUGGAGGUCACAGUACAACAGAGGAUUGAGCAUCA
B9: 108160877_108160997_3304_3pUTR_ENSMUSG00000068747_ENSMUST00000102632|mouse|control|control (ssRNA)
RNA: GGGAGUUCUACAGUCCGACGAUCAGCCACUGGCACAGCACAAAGUACAGCCUGAAAGAGCUCAGAAGCAGCCAGUUUUGUCUUUAAUAGGUGUCAGAGCUAGUCAAUUCUCUGCCUCCCUCUUGCCACAAGUUAAAAAUAUUGCAACAGAGGAUUGAGCAUCA
B10: chr3:52290438:52290439:-_ENSG00000164091_ENST00000296490|hu_hu|FALSE|FALSE (ssRNA)
RNA: GGGAGUUCUACAGUCCGACGAUCUAUAUGCGUAUCUGUAUGCACACAGAUGUAUUUAAAUGAAGGUGCAUACACUGUGCUAAAAUACAAACAACAGAAAUCAAAGGUCAUAUAUAAAAACGCUAAAUAUGACAUAUAACACAGCAACAGAGGAUUGAGCAUCA
B11: chr19:8913615:8913616:-_ENSMUSG00000071658_ENSMUST00000096259|mus_hu|mus_mus_mus_hu_False|38_108 (ssRNA)
RNA: GGGAGUUCUACAGUCCGACGAUCAGGGGGGCACCAACUUCUGCCUGAAAUGGGUGCCCCACCCAGUAGGGAGUUGCAGCUGAAAGUAUCUGAUGCACUGACAGUUACUAUACGAAAGGAGGCCCCUGGGGAGGGCCAGGCCAGCAACAGAGGAUUGAGCAUCA
B12: chr12:42180722:42180723:-_ENSMUSG00000036295_ENSMUST00000043884|mus_hu|mus_mus_mus_hu_True|68_88 (ssRNA)
RNA: GGGAGUUCUACAGUCCGACGAUCCUGUAGGAGAAGAAUCUGUGUGUCGGCAGGCAAUCUGGCUGGGAAGUUUAAAAGACCUAAAUCAUUACAAUCCACUGUAGAUGCUUCCAUAUAAAUGGAUCUGGGUGUAAACCAAGGCCUCAACAGAGGAUUGAGCAUCA
B13: chrX:153712385:153712386:-_ENSG00000102178_ENST00000369660|hu_hu|motif|central (ssRNA)
RNA: GGGAGUUCUACAGUCCGACGAUCUUAAACAAAUUGCCUUUAUUGUUAAACCAAUGAUUGGAUAUCAGAAACAGCCGGGCGGAUAUAGCUCCUUUUGGAUAAAAGUAGAAGCCUCACAUUCACCUUUAAUGUUAUUUCACUUUUCAACAGAGGAUUGAGCAUCA
B14: chr2:9725471:9725472:-_ENSG00000134308_ENST00000238081|hu_mus|motif|central (ssRNA)
RNA: GGGAGUUCUACAGUCCGACGAUCUGAAAAGCAGACUGAGACAGUUUCCAAUUCCACACAAGUAAAUGUUAAGUUGUCUCGGAGCAACUGCAUGAUGAGGGUGCUGUCUUUGUAGGAGUCUUCGUUCAGUGUAUCAAGCUCUGCCAACAGAGGAUUGAGCAUCA
B15: chr16:94664741:94664742:+_ENSMUSG00000040785_ENSMUST00000117648|mus_hu|mus_mus_mus_hu_False|28_68 (ssRNA)
RNA: GGGAGUUCUACAGUCCGACGAUCUGGUACUGAUCUUGGUAGCUGAUAUUCAGGAGAAAGGCUGGCCAAAGGUGUGUAUAUGCUGGUGUACUGGGGCAAACCUGGUACCAUGUUAAUGUAUGCUGGCGGUGUCUGGGUGAUAUCCAACAGAGGAUUGAGCAUCA
B16: 60969276_60970736_1488_3pUTR_ENSMUSG00000042506_ENSMUST00000041683|mouse|control|control (ssRNA)
RNA: GGGAGUUCUACAGUCCGACGAUCCAUUGUUGAGACUGUCCAGGGGCUGCUGGUAUUGCCCAUUCAUCCUGCUCUCUUUGCUGGAGGCCAUGAAGGGCGUCAUGUCCAGUUCCAGGGGAAAAGACACAUAUGUGGUGAUCUUCCCAACAGAGGAUUGAGCAUCA
B17: 98787355_98787475_131_3pUTR_ENSG00000104341_ENST00000445593|human|control|control (ssRNA)
RNA: GGGAGUUCUACAGUCCGACGAUCCCGGCCCGCUUCUACUUCUAUCUUGCAGGUAAUCGAUACAGCUCCUAUCACUCUUAUCUUGCACGAGAGGAAGGAAAACUGCGCGGUGCUAUUCCAGUCAAUUGCAGUACUUUGAACCACCAACAGAGGAUUGAGCAUCA
B18: chr16:56974071:56974072:+_ENSG00000051108_ENST00000439977|hu_mus|FALSE|FALSE (ssRNA)
RNA: GGGAGUUCUACAGUCCGACGAUCCAUGAGAAAUCUGCUCAGCGAGGAGUAGAAGUAAAGGAUGCUGAGGAAAACAGAAAACGUCGCUGCGGAAUAGGUCCAAUCCAACCAGUCUCGGUUUAUCUCAUCAUCUUCCUCCACCAGCAACAGAGGAUUGAGCAUCA
B19: chr12:46321692:46321693:-_ENSG00000139218_ENST00000369367|hu_mus|FALSE|FALSE (ssRNA)
RNA: GGGAGUUCUACAGUCCGACGAUCGCUCUCUACAAAUGCUUCUAUGUUUACUGCAGAAUCGUUCAAGUCAGUACUUUCUACAGUGAGACUCUCCCCUGUUCUUUCAUCGUUCAAGUCAGUACUUUCUACAGUGAGACUCUCCUCCAACAGAGGAUUGAGCAUCA
B20: chrX:118797523:118797524:-_ENSG00000125354_ENST00000360156|hu_mus|FALSE|FALSE (ssRNA)
RNA: GGGAGUUCUACAGUCCGACGAUCCACGAUGGGCUUGUAGCUGUCCUCCUUGUUGAUCUGAUCCCCAAAGCCUACAGUGCUCACAAUUGUGAGUUUCAACCCCACGUUGCUCUCCUGGAGGUCGUAGGUAUUGGACUGGAGCUGCAACAGAGGAUUGAGCAUCA
B21: chr2:168009442:168009443:-_ENSMUSG00000051149_ENSMUST00000088001|mus_hu|motif|central (ssRNA)
RNA: GGGAGUUCUACAGUCCGACGAUCGCGAUUACAGUAGAGGCAUUUGCUAGUAAAAUUGUGUAUUUUCAUAAUGUAGUUGGCGGCUGCUGGGACUUUCUCAGCUUUAUGUUCUUUUUCGAAGUGCACACUAUAGACAUUUUCAGGCAACAGAGGAUUGAGCAUCA
B22: chr5:139724684:139724685:+_ENSMUSG00000036817_ENSMUST00000110883|mus_hu|FALSE|FALSE (ssRNA)
RNA: GGGAGUUCUACAGUCCGACGAUCCUCUCAGCUUCCUCUGCUUUGCUCCUUUGUUGAGGAAAUGCAAAUGCAAAGAGCUUCCCGUUAAAAACAAGGAGUGUCUGAGAGCCACGUGUUCAACACGCUUCUCCUGCUGCUGACCCCCAACAGAGGAUUGAGCAUCA

This assay deals with T1, UNK ZnF1-3. In words: nsRBNS (natural sequence RNA bind-n-seq); RBNS binding buffer (assumed for nsRBNS): 25 mM Tris pH 7.5, 150 mM KCl, 3 mM MgCl2, 0.01% Triton X-100, 500 ug/ml BSA, 20 U/ml SUPERase-In, 4 C; UNK is unkempt and MSI1 is Musashi-1; names of the RNAs are library labels; protein concentration not given here; high values mean tight binding.
For the molecule B1, the binding signal was 1.13 enrichment R. Next, B2: 0.516 enrichment R; B3: 1.62 enrichment R; B4: 0.635 enrichment R. To B5 belongs 1.47 enrichment R; to B6, 0.84 enrichment R. To B7 belongs 0.918 enrichment R; to B8, 0.566 enrichment R; to B9, 1.99 enrichment R. Molecule B10 came in with a binding signal of 0.722 enrichment R. For the molecule B11, the binding signal is 0.832 enrichment R.

The molecule B12 yielded a binding signal of 1.22 enrichment R. Next, B13: 0.694 enrichment R. Next, B14: 1.09 enrichment R.

B15 yielded a binding signal of 1.02 enrichment R. Next, B16: 0.764 enrichment R.

Molecule B17 came in with a binding signal of 0.722 enrichment R.

Molecule B18 came in with a binding signal of 0.921 enrichment R. To B19 belongs 0.734 enrichment R. Next, B20: 0.603 enrichment R; B21: 1.78 enrichment R.

Molecule B22 returned a binding signal of 0.618 enrichment R.

The record behind these values is article PMC12136788.
